# According to PMC9911399, “Two distinct binding modes provide the RNA-binding protein RbFox with extraordinary sequence specificity”:
# Where a chain is given by its changes, count along the chain named. This is one part of the list.
# T1: RBFOX1 RRM (Homo sapiens, UniProt Q9NWB1 109-208)
# T1 sequence: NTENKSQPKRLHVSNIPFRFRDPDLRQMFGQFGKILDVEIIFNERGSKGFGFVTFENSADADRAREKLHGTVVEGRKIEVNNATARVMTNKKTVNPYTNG
# B1: GGAUAUA (DNA:RNA)
# RNA: GGGAGACCGGAAUUCAGAUUGUCCGGAUAUAUUAAAUCCCGUCGUAGCCACCA
# DNA 1: CAATCTGAATTCCGGTCTCCC
# DNA 2: TGGTGGCTACGACGGGATT
# B2: CGGAAGA (DNA:RNA)
# RNA: B1 RNA with G25C, A27G, U28A, U30G
# DNA 1: CAATCTGAATTCCGGTCTCCC
# DNA 2: TGGTGGCTACGACGGGATT
# B3: UUUAAUC (DNA:RNA)
# RNA: B1 RNA with G25U, G26U, A27U, U28A, A31C
# DNA 1: CAATCTGAATTCCGGTCTCCC
# DNA 2: TGGTGGCTACGACGGGATT
# B4: CGGGUCU (DNA:RNA)
# RNA: B1 RNA with G25C, A27G, U28G, A29U, U30C, A31U
# DNA 1: CAATCTGAATTCCGGTCTCCC
# DNA 2: TGGTGGCTACGACGGGATT
# B5: GGAAUAG (DNA:RNA)
# RNA: B1 RNA with U28A, A29U, U30A, A31G
# DNA 1: CAATCTGAATTCCGGTCTCCC
# DNA 2: TGGTGGCTACGACGGGATT
# B6: AAUGUGA (DNA:RNA)
# RNA: B1 RNA with G25A, G26A, A27U, U28G, A29U, U30G
# DNA 1: CAATCTGAATTCCGGTCTCCC
# DNA 2: TGGTGGCTACGACGGGATT
# B7: UCCCGAG (DNA:RNA)
# RNA: GGGAGACCGGAAUUCAGAUUGUCCUCCCGAGUUAAAUCCCGUCGUAGCCACCA
# DNA 1: CAATCTGAATTCCGGTCTCCC
# DNA 2: TGGTGGCTACGACGGGATT
# B8: UUUCGAG (DNA:RNA)
# RNA: B7 RNA with C26U, C27U
# DNA 1: CAATCTGAATTCCGGTCTCCC
# DNA 2: TGGTGGCTACGACGGGATT
# B9: GUCUUGU (DNA:RNA)
# RNA: B1 RNA with G26U, A27C, A29U, U30G, A31U
# DNA 1: CAATCTGAATTCCGGTCTCCC
# DNA 2: TGGTGGCTACGACGGGATT
# B10: AAACAGA (DNA:RNA)
# RNA: B1 RNA with G25A, G26A, U28C, U30G
# DNA 1: CAATCTGAATTCCGGTCTCCC
# DNA 2: TGGTGGCTACGACGGGATT
# B11: CUCAUAC (DNA:RNA)
# RNA: B7 RNA with U25C, C26U, C28A, G29U, G31C
# DNA 1: CAATCTGAATTCCGGTCTCCC
# DNA 2: TGGTGGCTACGACGGGATT
# B12: UAUCAGA (DNA:RNA)
# RNA: B1 RNA with G25U, G26A, A27U, U28C, U30G
# DNA 1: CAATCTGAATTCCGGTCTCCC
# DNA 2: TGGTGGCTACGACGGGATT
# B13: GUCGGCA (DNA:RNA)
# RNA: B1 RNA with G26U, A27C, U28G, A29G, U30C
# DNA 1: CAATCTGAATTCCGGTCTCCC
# DNA 2: TGGTGGCTACGACGGGATT
# B14: GAUGAGG (DNA:RNA)
# RNA: B1 RNA with G26A, A27U, U28G, U30G, A31G
# DNA 1: CAATCTGAATTCCGGTCTCCC
# DNA 2: TGGTGGCTACGACGGGATT
# B15: AAUCCCG (DNA:RNA)
# RNA: B7 RNA with U25A, C26A, C27U, G29C, A30C
# DNA 1: CAATCTGAATTCCGGTCTCCC
# DNA 2: TGGTGGCTACGACGGGATT
# B16: ACUCUAC (DNA:RNA)
# RNA: B7 RNA with U25A, C27U, G29U, G31C
# DNA 1: CAATCTGAATTCCGGTCTCCC
# DNA 2: TGGTGGCTACGACGGGATT
# B17: GCUCCUA (DNA:RNA)
# RNA: B1 RNA with G26C, A27U, U28C, A29C
# DNA 1: CAATCTGAATTCCGGTCTCCC
# DNA 2: TGGTGGCTACGACGGGATT
# B18: AGAGAGA (DNA:RNA)
# RNA: B1 RNA with G25A, U28G, U30G
# DNA 1: CAATCTGAATTCCGGTCTCCC
# DNA 2: TGGTGGCTACGACGGGATT
# B19: UGCAGAA (DNA:RNA)
# RNA: B7 RNA with C26G, C28A, G31A
# DNA 1: CAATCTGAATTCCGGTCTCCC
# DNA 2: TGGTGGCTACGACGGGATT
# B20: AUCUGCG (DNA:RNA)
# RNA: B7 RNA with U25A, C26U, C28U, A30C
# DNA 1: CAATCTGAATTCCGGTCTCCC
# DNA 2: TGGTGGCTACGACGGGATT
# Target: T1, RBFOX1 RRM
# Test: EMSA; HiTS-Eq, 1 nM pool, 10 min; buffer printed only for the single-RNA assays: 10 mM Tris pH 7.5, 150 mM NaCl, 3.4 mM EDTA, 0.001% NP-40, 30 C
# Conditions: tags: His6 N-terminal (pET28a); label: 5' 32P
# In short: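 Purified RbFox RRM (wild type or mutant) was equilibrated for 10 min in 50 µL with 1 nM of a 5′-radiolabelled pool of RNA with 7 randomized nucleotides, its flanks annealed to DNA oligonucleotides, across increasing protein concentrations. Free RNA was separated by 8% native PAGE, excised, reverse-transcribed, PCR-barcoded and sequenced on an Illumina HiSeq 2500. Relative association constants came from read-count changes of each variant against the control reaction, normalised to the cognate motif.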
row,Binder,binding signal
1,B1,0.00821 KA relative to UGCAUGU
2,B2,0.0191 KA relative to UGCAUGU
3,B3,0.00539 KA relative to UGCAUGU
4,B4,0.0296 KA relative to UGCAUGU
5,B5,0.0101 KA relative to UGCAUGU
6,B6,0.0087 KA relative to UGCAUGU
7,B7,0.00733 KA relative to UGCAUGU
8,B8,0.0142 KA relative to UGCAUGU
9,B9,0.0251 KA relative to UGCAUGU
10,B10,0.000181 KA relative to UGCAUGU
11,B11,0.000607 KA relative to UGCAUGU
12,B12,0.0158 KA relative to UGCAUGU
13,B13,0.0205 KA relative to UGCAUGU
14,B14,0.0162 KA relative to UGCAUGU
15,B15,0.00284 KA relative to UGCAUGU
16,B16,0.00136 KA relative to UGCAUGU
17,B17,0.00339 KA relative to UGCAUGU
18,B18,0.0104 KA relative to UGCAUGU
19,B19,0.0113 KA relative to UGCAUGU
20,B20,0.0148 KA relative to UGCAUGU
